# Data reported in the supplement of paper PMC11880418.
# Counter-ions that a name gives are not always drawn. The list shows a part of the results. The data scatter; read single values as rough.
# System: MKN45
# Test: ALDHbr (CSC) cell proportion score relative to DMSO vehicle (ratio to DMSO); breast (SUM159) / gastric (MKN45) / pancreatic (PANC1) / colon cancer lines; ALDHbr cells have high ALDH activity and are rich in cancer stem cells (CSC); higher = more CSC (ALDHbr) cells remaining
# Conditions: 10 µM; 72 h
# 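Also: High-content imaging of ALDEFLUOR-stained cells with Hoechst-labelled nuclei in 384-well plates, triplicate wells, scored as Z-score against 0.1% DMSO vehicle, negative meaning fewer ALDHbr cells.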
row,SMILES,ALDHbr
1,C=C1c2c(Cl)ccc(O)c2C(O)=C2C(=O)[C@]3(O)C(O)=C(C(N)=O)C(=O)[C@@H](N(C)C)[C@@H]3[C@@H](O)[C@H]12.O=C(O)c1cc(S(=O)(=O)O)ccc1O [Meclocycline sulfosalicylate],0.314
2,COCC1=C(C(=O)OC(C)OC(=O)OC(C)C)N2C(=O)[C@@H](NC(=O)/C(=N\OC)c3csc(N)n3)[C@H]2SC1 (stereo partly specified) [Cefpodoxime proxetil],0.945
3,CCOc1ccccc1OC(c1ccccc1)C1CNCCO1 (stereo unspecified) [Reboxetine mesylate],1.11
4,CCN(CC)CCOC(=O)c1ccc(N)cc1 [Procaine hydrochloride],0.991

# System: PANC1
# Test: as above
# Conditions: 10 µM; 72 h
row,SMILES,ALDHbr
1,O=C(O)CN(CCN(CC(=O)O)CC(=O)O)CCN(CC(=O)O)CC(=O)O [Pentetic acid],0.766
2,Cc1cc(CC(=O)O)n(C)c1C(=O)c1ccc(Cl)cc1 [Zomepirac sodium salt],0.948
3,CCN[C@H]1C[C@H](C)S(=O)(=O)c2sc(S(N)(=O)=O)cc21 [Dorzolamide hydrochloride],0.892
4,CCCOc1cc(N)ccc1C(=O)OCCN(CC)CC [Propoxycaine hydrochloride],1.04
5,COc1ccc(CC(C)NCC(O)c2ccc(O)c(NC=O)c2)cc1 (stereo unspecified) [Formoterol fumarate],0.819
6,OC(c1cc(C(F)(F)F)nc2c(C(F)(F)F)cccc12)C1CCCCN1 (stereo unspecified) [Mefloquine hydrochloride],1.41
7,CC(CCc1ccc(O)cc1)NCCc1ccc(O)c(O)c1 (stereo unspecified) [Dobutamine hydrochloride],0.742
